# The campaign covered roughly 260,000 compounds. About 890 (0.34%) were called active. This list was built around the results that the source calls inconclusive (neither active nor inactive); the mix of calls is not that of the screen. Calls follow the shape of the dose curve; as a rule, active = well fitted activation curve with a large enough effect; inconclusive = small, poorly fitted or top-dose-only effect; inactive = no such curve, though single readings can be large or run the other way. No potency is given beside an inconclusive call; the fits are too rough.
# Biological target: Pyruvate kinase PKM (Homo sapiens) (UniProt P14618)
# Chain of UniProt P14618 (P14618 whole entry, looked up, canonical isoform): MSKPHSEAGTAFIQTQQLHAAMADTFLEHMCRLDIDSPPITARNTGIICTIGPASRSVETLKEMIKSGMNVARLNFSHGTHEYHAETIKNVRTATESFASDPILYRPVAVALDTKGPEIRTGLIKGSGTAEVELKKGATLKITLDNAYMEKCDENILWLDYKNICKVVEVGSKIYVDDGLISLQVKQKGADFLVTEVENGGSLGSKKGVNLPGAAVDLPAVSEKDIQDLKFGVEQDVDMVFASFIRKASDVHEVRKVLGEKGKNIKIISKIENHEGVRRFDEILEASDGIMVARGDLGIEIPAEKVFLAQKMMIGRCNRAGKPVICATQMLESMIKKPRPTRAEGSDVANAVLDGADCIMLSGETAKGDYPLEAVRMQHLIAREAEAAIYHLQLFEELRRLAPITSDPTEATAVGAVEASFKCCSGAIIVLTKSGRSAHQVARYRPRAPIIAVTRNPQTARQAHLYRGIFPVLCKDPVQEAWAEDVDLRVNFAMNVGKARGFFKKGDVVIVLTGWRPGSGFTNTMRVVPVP
# Experiment: qHTS Assay for Activators of Human Muscle isoform 2 Pyruvate Kinase; also: nearly all actives have a fitted effect of over 55% in size
# Settings: purified PKM2, Kinase-Glo ATP luminescence; Potency: activation; activation: at 57.5 µM (top of the series), 0% is enzyme alone, no compound
# Procedure, shortened: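 Purified hPK-M2 (>95%) run at intermediate activity with 0.1 mM ADP and 0.5 mM PEP in 50 mM imidazole pH 7.2, KCl, MgCl2; 1 h room temperature. ATP formed read by Kinase-Glo luminescence; normalized to uninhibited and no-enzyme controls.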
# % is scaled to controls: 0 for no effect and ±100 for the full control effect; potency is read from the fitted curve at half-maximal effect; tags tell the direction and shape of the fitted curve.
SMILES,Potency,activation
COc1ccc(NS(=O)(=O)c2ccc(C(=O)N3CCN(Cc4ccccc4)CC3)cc2)cc1,"inconclusive [rising, partial curve]",–
COc1cc(NS(=O)(=O)c2ccc(C)cc2)ccc1-n1cnnn1,"inconclusive [rising, single point]",–
O=C(NCCCN1CCOCC1)C(=O)NCC1CCCO1 (stereo not drawn),"inconclusive [rising, partial curve]",–
COc1ccc(/C=C(/C#N)S(=O)(=O)c2ccc(C)cc2)cc1,"inconclusive [rising, partial curve]",–
CCn1c(N)c(C(=O)NCc2ccco2)sc1=S,active: 3.55 µM,–
O=S(=O)(NCCCCCNS(=O)(=O)c1ccc(F)cc1)c1ccc(F)cc1,"inconclusive [rising, partial curve]",–
O=C(C1CC1)N1CCN(S(=O)(=O)c2ccc3c(c2)OCCO3)CC1,"inconclusive [rising, partial curve]",–
COCc1cc(C)nc(OCC(=O)N/N=C/c2ccc(C)o2)c1C#N,"inconclusive [rising, partial curve]",–
N#C/C(=C\c1ccc(N2CCOCC2)o1)c1ccccc1,"inconclusive [rising, single point]",–
O=C(Cc1cccs1)N/N=C/C=C\c1ccco1,"inconclusive [rising, single point]",–
COC(=O)c1cccc(NC(=O)Cc2coc3cc(OC)ccc23)c1,"inconclusive [rising, partial curve, poor fit]",–
O=C(O)c1ccc2c(c1)C(=O)/C(=C/c1ccccc1)C2=O,inactive,–
O=C(CCOc1ccccc1)N1CCN(S(=O)(=O)c2cccs2)CC1,active: 12.6 µM,–
CNc1c([N+](=O)[O-])cnn1-c1ccc(Cl)cc1Cl,active: 11.2 µM,–
Cc1cc(C)n2cc(CSc3nc4ccccc4[nH]3)nc2n1,"inconclusive [rising, partial curve]",–
Nc1ccc2cn[nH]c2c1,"inconclusive [rising, partial curve, poor fit]",–
COC(=O)c1sc(NC(=S)NC(=O)c2ccccc2F)nc1C,inactive,–
O=C1Cc2ccccc2C(=O)N1c1ccccc1,"inconclusive [rising, single point]",–
O=C(CCl)N1CCN(S(=O)(=O)c2ccc3ccccc3c2)CC1,active: 12.6 µM,–
CCOC(=O)C1C(=O)C=C(c2ccc(C)cc2)CC1c1ccc([N+](=O)[O-])cc1 (stereo not drawn),"inconclusive [rising, single point]",–
CCCCC(=O)N(Cc1ccc2c(c1)OCO2)Cc1nc2ccccc2c(=O)[nH]1,"inconclusive [rising, partial curve]",–
COCC(=O)N/N=C\c1ccccc1OC/C=C/c1ccccc1,inactive,–
O=C(Nc1cccc([N+](=O)[O-])c1)C12CC3CC(C1)CC(n1cnc([N+](=O)[O-])n1)(C3)C2,"inconclusive [rising, single point]",–
CCOc1ccc(S(=O)(=O)NCC(=O)N(C)Cc2cccnc2)cc1,"inconclusive [rising, partial curve]",–
Nc1nnnn1/N=C/c1ccccc1OCc1ccccc1,"inconclusive [rising, full curve]",–

SMILES,Potency,activation
Cn1c(=O)oc2cc(S(=O)(=O)NCc3ccco3)ccc21,"inconclusive [rising, partial curve]",–
Cc1nc2c(S(=O)(=O)c3ccccc3)cnn2c(C)c1C,"inconclusive [rising, partial curve]",–
N#Cc1cc(Oc2cccc3cccnc23)c(-n2nnc3ccccc32)cc1C#N,"inconclusive [rising, partial curve, poor fit]",–
CS(=O)(=O)c1cnc2c(S(=O)(=O)c3ccccc3)cnn2c1N,"inconclusive [rising, full curve]",–
COc1ccc(/C=N/n2c(-c3cccs3)n[nH]c2=S)cc1,inactive,–
COc1ccc(NC(=O)NCCN2CCN(c3cc(OC)ccc3OC)CC2)cc1,–,"inactive: -4.17% [at 11.5 µM, 0% is enzyme alone, no compound]"
CCc1ccc2c(c1)C(c1ccc([N+](=O)[O-])cc1)=NNC(c1ccc(F)cc1)=N2,inactive,–
O=C(OCCNc1nc(-c2ccccc2)nc2ccccc12)c1cccnc1,"inconclusive [rising, single point]",–
Cc1cc(S(=O)(=O)Nc2ccc(C(=O)N3CCN(c4ccccc4O)CC3)cc2)ccc1F,"inconclusive [rising, partial curve]",–
O=C(Cc1ccccc1)NNC(=O)c1ccccc1C(=O)O,inactive,–
O=C(NCc1cccc(Cl)c1)N1CCN(S(=O)(=O)c2ccccc2F)CC1,active: 14.1 µM,–
CC(C)(C)C(=O)OCc1nc(-c2ccc(O)c(O)c2)cs1,"inconclusive [rising, full curve]",–
CC(C)c1ccc(S(=O)(=O)Nc2ccc(SC(F)F)cc2)cc1,"inconclusive [rising, partial curve, poor fit]",–
Cc1cnc(NC(=O)CSc2nc3ccccc3c(=O)[nH]2)s1,"inconclusive [rising, single point]",–
COC(=O)CSc1nnc(-c2ccc(NS(=O)(=O)c3ccccc3)cc2)o1,active: 25.1 µM,–
Cn1c(SCC(=O)N/N=C/C=C\c2ccccc2[N+](=O)[O-])nc2ccccc21,"inconclusive [rising, full curve]",–
CC(=O)c1c(C)[nH]c(C(=O)Nc2cccc(S(=O)(=O)N(C)C)c2)c1C,"inconclusive [rising, single point]",–
CCn1c(=O)c(=O)n(CC)c2cc(S(=O)(=O)Nc3cccc(OC)c3)ccc21,"inconclusive [rising, full curve]",–
Cc1cc(=O)n2c3ccccc3n(CC(O)CN3CCN(CCO)CC3)c2c1C#N (stereo not drawn),"inconclusive [rising, partial curve, poor fit]",–
Cc1cc2[nH]c(=O)c(=O)[nH]c2cc1S(=O)(=O)Nc1cccc(Cl)c1C,active: 15.8 µM,–
CC(=O)N1C2(C=CC1(C)C(=O)NCCN1CCOCC1)CCCCC2 (stereo not drawn),inactive,–
Cc1cc(NC(=O)CSc2nc(-c3cccnc3)ccc2C#N)no1,"inconclusive [rising, full curve, poor fit]",–
O=C(c1ccc2nc(Cc3ccccc3F)oc2c1)N1CCCC1,"inconclusive [rising, single point]",–
CN(C)/C=C1\C=C2C(=O)c3ccccc3N2C1=O,inactive,–
Cc1cc(=O)n(C)c(=O)n1CCCCOc1ccc([N+](=O)[O-])cc1,"inconclusive [rising, partial curve]",–

SMILES,Potency,activation
CC(NC(=O)c1ccc2c(c1)OCO2)C(c1cccs1)N1CCN(c2ccccc2)CC1 (stereo not drawn),inactive,–
CCOc1ccc(C(=O)N2CCN(c3cccc(C)c3C)CC2)cc1,active: 14.1 µM,–
Cc1cc(/C=N/n2cnnc2)c(C)n1-c1ccc(Cl)cc1,inactive,–
CCOC(=O)c1c(C)oc2cc(Br)c(OCC(N)=O)cc12,"inconclusive [rising, single point]",–
O=c1[nH]c(=O)n(C(c2ccccc2)c2ccccc2)cc1Br,inactive,–
CCCCCCCNC1=CC(=O)CC(c2ccccc2)C1 (stereo not drawn),inactive,–
CC(=O)c1ccccc1OC(=O)CCN1C(=O)c2ccccc2C1=O,"inconclusive [rising, full curve]",–
O=C(O)C1C2C=CC(O2)C1C(=O)Nc1ccc(S(=O)(=O)N2CCc3ccccc32)cc1 (stereo not drawn),"inconclusive [rising, single point]",–
Cc1ccc(/C=N/NC(=O)Cn2cnc3ccccc32)o1,"inconclusive [rising, partial curve]",–
Nc1nnnn1/N=C/c1cc(Cl)cc(Cl)c1O,inactive,–
COc1ccccc1NS(=O)(=O)c1c(C)nc2sccn2c1=O,"inconclusive [rising, partial curve, poor fit]",–
O=C(CCCc1c[nH]c2ccccc12)N1CCN(S(=O)(=O)c2cccs2)CC1,active: 1.58 µM,–
CCCn1c(COc2ccccc2OC)nc2ccccc21,active: 15.8 µM,–
O=C(NNC(=O)c1cc2cc(Br)ccc2oc1=O)c1ccc(O)cc1O,"inconclusive [rising, single point]",–
O=C(NC(=S)NCCc1ccccn1)c1ccco1,"inconclusive [rising, single point]",–
O=C(CC1CCCCC1)Nc1nc2ccccc2s1,inactive,–
CCOC(=O)c1[nH]c2cc(OC)c(OC)cc2c1NC(=O)C(C)N1CCN(Cc2ccccc2)CC1 (stereo not drawn),inactive,–
COc1ccc(C(=O)N2CCN(c3nc4cc(C)ccc4cc3C#N)CC2)c(OC)c1,inactive,–
NS(=O)(=O)c1cc2c(cc1Cl)NC(CSCc1ccccc1)=NS2(=O)=O,"inconclusive [rising, single point]",–
Cc1cc(NC(=O)CSc2ncn(-c3ccccc3)n2)no1,active: 25.1 µM,–
Cc1cc(C)cc(NS(=O)(=O)c2ccc3[nH]c(=O)[nH]c3c2)c1,"inconclusive [rising, partial curve]",–
c1coc(-c2nc(-c3ccco3)c(-c3ccco3)nc2-c2ccco2)c1,"inconclusive [rising, partial curve]",–
Cc1noc(C)c1COc1cccc(C(=O)Oc2ccc3c(c2)OCO3)c1,"inconclusive [rising, single point]",–
